# According to the supplement of paper PMC8728848:
# The list shows a part of the results.
# Legend:
# Assay in all cases: glycan array binding signal (z-score within array); higher = stronger binding
# Conditions in all cases: glycan notation: IUPAC condensed, linker removed
# Gal(b1-3)GalNAc = target: Gal(b1-3)GalNAc
# Procedure, shortened: (§1)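 Columns mapping to the same glycan were averaged after glycan names were converted to IUPAC-condensed notation. The data come from 3228 arrays in the Consortium for Functional Glycomics database, limited to those with an available protein sequence. Binding is reported as a within-array Z-score averaged across arrays of one protein sequence and across linkers.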
# [1] = target: Gal(b1-3)GalNAc(b1-3)Gal(a1-4)Gal(b1-4)Glc
# Procedure, shortened: as §1
# [2] = target: Gal(b1-3)GalNAc(b1-3)Gal(b1-4)Glc
# Procedure, shortened: as §1
# [3] = target: Gal(b1-3)GalNAc(b1-3)Gal(b1-4)GlcNAc
# Procedure, shortened: as §1
# [4] = target: Gal(b1-3)GalNAc(b1-4)Gal(b1-4)Glc
# Procedure, shortened: as §1
# [5] = target: Gal(b1-3)GalNAc(b1-4)[Neu5Ac(a2-3)]Gal(b1-4)Glc
# Procedure, shortened: as §1
# [6] = target: Gal(b1-3)GlcNAc(b1-3)Gal(b1-3)GlcNAc
# Procedure, shortened: as §1
# [7] = target: Gal(b1-3)[Fuc(a1-4)]GlcNAc
# Procedure, shortened: as §1
# [8] = target: Gal(b1-3)[Fuc(a1-4)]GlcNAc(b1-3)Gal(b1-3)[Fuc(a1-4)]GlcNAc
# Procedure, shortened: as §1
# [9] = target: Gal(b1-3)[Fuc(a1-4)]GlcNAc(b1-3)Gal(b1-4)GlcNAc
# Procedure, shortened: as §1
# [10] = target: Gal(b1-3)[Fuc(a1-4)]GlcNAc(b1-3)Gal(b1-4)[Fuc(a1-3)]GlcNAc
# Procedure, shortened: as §1
# [11] = target: Gal(b1-3)[GlcNAc(b1-6)]GalNAc
# Procedure, shortened: as §1
# [12] = target: Gal(b1-3)[GlcNAc(b1-6)]GlcNAc
# Procedure, shortened: as §1
# [13] = target: Gal(b1-3)[Neu5Ac(a2-6)]GalNAc
# Procedure, shortened: as §1
# [14] = target: Gal(b1-3)[Neu5Ac(a2-6)]GlcNAc
# Procedure, shortened: as §1
# [15] = target: Gal(b1-3)[Neu5Ac(a2-6)]GlcNAc(a1-4)Gal(b1-4)Glc
# Procedure, shortened: as §1
# [16] = target: Gal(b1-3)[Neu5Ac(b2-6)]GlcNAc
# Procedure, shortened: as §1
# [17] = target: Gal(b1-4)GalNAc(a1-3)[Fuc(a1-2)]Gal(b1-4)GlcNAc
# Procedure, shortened: as §1
# [18] = target: Gal(b1-4)GalNAc(b1-3)[Fuc(a1-2)]Gal(b1-4)GlcNAc
# Procedure, shortened: as §1
# Gal(b1-4)Glc = target: Gal(b1-4)Glc
# Procedure, shortened: as §1
# Gal(b1-4)Glc6S = target: Gal(b1-4)Glc6S
# Procedure, shortened: as §1
# Gal(b1-4)GlcNAc = target: Gal(b1-4)GlcNAc
# Procedure, shortened: as §1
# [19] = target: Gal(b1-4)GlcNAc(b1-2)Man(a1-3)[Gal(b1-4)GlcNAc(b1-2)Man(a1-6)]Man(b1-4)GlcNAc(b1-4)GlcNAc
# Procedure, shortened: as §1
# [20] = target: Gal(b1-4)GlcNAc(b1-3)Gal(b1-3)GlcNAc
# Procedure, shortened: as §1
# [21] = target: Gal(b1-4)GlcNAc(b1-3)Gal(b1-4)Glc
# Procedure, shortened: as §1
# [22] = target: Gal(b1-4)GlcNAc(b1-3)Gal(b1-4)GlcNAc
# Procedure, shortened: as §1
# [23] = target: Gal(b1-4)GlcNAc(b1-3)Gal(b1-4)GlcNAc(b1-3)Gal(b1-4)GlcNAc
# Procedure, shortened: as §1
# [24] = target: Gal(b1-4)GlcNAc(b1-3)Gal(b1-4)[Fuc(a1-3)]GlcNAc(b1-3)Gal(b1-4)[Fuc(a1-3)]GlcNAc
# Procedure, shortened: as §1
# [25] = target: Gal(b1-4)GlcNAc(b1-3)GalNAc
# Procedure, shortened: as §1
# [26] = target: Gal(b1-4)GlcNAc(b1-3)[Gal(b1-4)GlcNAc(b1-6)]GalNAc
# Procedure, shortened: as §1
# [27] = target: Gal(b1-4)GlcNAc(b1-6)GalNAc
# Procedure, shortened: as §1
# [28] = target: Gal(b1-4)GlcNAc(b1-6)[Gal(b1-3)]GalNAc
# Procedure, shortened: as §1
# [29] = target: Gal(b1-4)GlcNAc(b1-6)[Gal(b1-3)]GlcNAc
# Procedure, shortened: as §1
# Gal3S(b1-3)GalNAc = target: Gal3S(b1-3)GalNAc
# Procedure, shortened: as §1
# Gal3S(b1-3)GlcNAc = target: Gal3S(b1-3)GlcNAc
# Procedure, shortened: as §1
# [30] = target: Gal3S(b1-3)[Fuc(a1-4)]GlcNAc
# Procedure, shortened: as §1
binder,measurement,setting,value
"DC SIGN CRD (Homo sapiens), Q9NNX6 (protein) QPCPWEWTFFQGNCYFMSNSQRNWHDSITACKEVGAQLVVIKSAEEQNFLQLQSSRSNRFTWMGLSDLNQEGTWQWVDGSPLLPSFKQYWNRGEPNNVGEEDCAEFSGNGWNDDKCNLAKFWICKKSAWSHPQFEK",glycan array binding signal (z-score),Gal(b1-3)GalNAc,-0.358
same,glycan array binding signal (z-score),[1],-0.334
same,glycan array binding signal (z-score),[2],-0.091
same,glycan array binding signal (z-score),[3],-0.378
same,glycan array binding signal (z-score),[4],-0.385
same,glycan array binding signal (z-score),[5],-0.363
same,glycan array binding signal (z-score),[6],-0.388
same,glycan array binding signal (z-score),[7],1.6
same,glycan array binding signal (z-score),[8],1.08
same,glycan array binding signal (z-score),[9],0.259
same,glycan array binding signal (z-score),[10],1.3
same,glycan array binding signal (z-score),[11],-0.35
same,glycan array binding signal (z-score),[12],-0.386
same,glycan array binding signal (z-score),[13],-0.369
same,glycan array binding signal (z-score),[14],-0.387
same,glycan array binding signal (z-score),[15],-0.385
same,glycan array binding signal (z-score),[16],-0.355
same,glycan array binding signal (z-score),[17],-0.381
same,glycan array binding signal (z-score),[18],-0.358
same,glycan array binding signal (z-score),Gal(b1-4)Glc,-0.391
same,glycan array binding signal (z-score),Gal(b1-4)Glc6S,-0.032
same,glycan array binding signal (z-score),Gal(b1-4)GlcNAc,-0.382
same,glycan array binding signal (z-score),[19],-0.394
same,glycan array binding signal (z-score),[20],-0.358
same,glycan array binding signal (z-score),[21],-0.393
same,glycan array binding signal (z-score),[22],-0.395
same,glycan array binding signal (z-score),[23],-0.401
same,glycan array binding signal (z-score),[24],0.041
same,glycan array binding signal (z-score),[25],-0.398
same,glycan array binding signal (z-score),[26],-0.376
same,glycan array binding signal (z-score),[27],-0.391
same,glycan array binding signal (z-score),[28],-0.395
same,glycan array binding signal (z-score),[29],-0.395
same,glycan array binding signal (z-score),Gal3S(b1-3)GalNAc,-0.399
same,glycan array binding signal (z-score),Gal3S(b1-3)GlcNAc,-0.378
same,glycan array binding signal (z-score),[30],1.42
